Reference: the supplement of paper PMC12067230
This is a noisy data set.

Assay: amyloid nucleation score relative to library mode (yeast Sup35 reporter selection) (log enrichment difference); higher = more amyloid nucleation; sequences are the first 22 residues of the Bri2 peptide extended by up to 12 random residues
Settings: random library (experiment): 1;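 active = nucleation score significantly above 0 at FDR 0.05; inactive = not significantly above 0 or absent from output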
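Further: [psi-pin-] Saccharomyces cerevisiae expressing SupN fusions, induced by 100 µM Cu2SO4, selected 7 d at 30 °C without adenine and uracil, scored by deep sequencing of output versus input.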

Sequence | amyloid nucleation score
EASNCFAIRHFENKFAVETLICELCRGNDPTVER | inactive
EASNCFAIRHFENKFAVETLICYSWYHRSVNSTG | inactive
EASNCFAIRHFENKFAVETLICLYRELNLRGGQQ | inactive
EASNCFAIRHFENKFAVETLICNDLVLPTAIVTP | inactive
EASNCFAIRHFENKFAVETLICHSRLERRRFEWK | 5.06
EASNCFAIRHFENKFAVETLICTSYTMIG | inactive
EASNCFAIRHFENKFAVETLICFDGHRYVGYELQ | 3.4
EASNCFAIRHFENKFAVETLICRPGNGFTTRLSE | inactive
EASNCFAIRHFENKFAVETLICEVMEMSSTVVRT | inactive
EASNCFAIRHFENKFAVETLICWKSRKGSQDDSG | -0.00976
EASNCFAIRHFENKFAVETLICGKYSRSFWSQVT | inactive
EASNCFAIRHFENKFAVETLICIVLIGFFSVM | 2.3
EASNCFAIRHFENKFAVETLICYCV | inactive
EASNCFAIRHFENKFAVETLICTYVGMGSMRLEL | inactive
EASNCFAIRHFENKFAVETLICDLLKYRSNLKRK | inactive
EASNCFAIRHFENKFAVETLICRDMLSGSSCSFR | inactive
EASNCFAIRHFENKFAVETLICVLWLGTRLFRVM | 4.89
EASNCFAIRHFENKFAVETLICWSYPESACGGLK | 4.57
EASNCFAIRHFENKFAVETLICAMDG | inactive
EASNCFAIRHFENKFAVETLICGMKSGRRSWGV | -0.0194
EASNCFAIRHFENKFAVETLICRVRNVIRFSCSR | -0.187
EASNCFAIRHFENKFAVETLICQWVAWAWRFRPG | inactive
EASNCFAIRHFENKFAVETLICRQ | inactive
EASNCFAIRHFENKFAVETLICCVADRC | 6.19
EASNCFAIRHFENKFAVETLICIDHLPRQDFFHV | 1.93
EASNCFAIRHFENKFAVETLICMCKLHREEDFVR | 5.22

Sequence | amyloid nucleation score
EASNCFAIRHFENKFAVETLICVSRHSMCHIIVT | inactive
EASNCFAIRHFENKFAVETLICDLYRMCRSCDMG | inactive
EASNCFAIRHFENKFAVETLICGDLGSAKCGEGW | inactive
EASNCFAIRHFENKFAVETLICYYQRLKNRRVTP | inactive
EASNCFAIRHFENKFAVETLICPVKSGRVQRVGA | inactive
EASNCFAIRHFENKFAVETLICGHDSMPSALGRS | inactive
EASNCFAIRHFENKFAVETLICAGPWSMEAAVVQ | inactive
EASNCFAIRHFENKFAVETLICYDRHVLSRLTLA | inactive
EASNCFAIRHFENKFAVETLICTFRSDRVGRQGD | 0.451
EASNCFAIRHFENKFAVETLICNTARRCSAVSSV | inactive
EASNCFAIRHFENKFAVETLICANVCRRTSMASY | inactive
EASNCFAIRHFENKFAVETLICTLGTWDHGAWVV | inactive
EASNCFAIRHFENKFAVETLICLLSRYNWSPLLW | inactive
EASNCFAIRHFENKFAVETLICFTER | inactive
EASNCFAIRHFENKFAVETLICWQYASRCSRW | 3.63
EASNCFAIRHFENKFAVETLICIFVN | inactive
EASNCFAIRHFENKFAVETLICMDAVSKWAVH | inactive
EASNCFAIRHFENKFAVETLICERR | inactive
EASNCFAIRHFENKFAVETLICTAPWAGEWHVDT | 4.63
EASNCFAIRHFENKFAVETLICDRRTAGPAREKA | inactive
EASNCFAIRHFENKFAVETLICGCASFWRSVCRC | 5.68
EASNCFAIRHFENKFAVETLICGVDL | inactive
EASNCFAIRHFENKFAVETLICPDILGCQVVWSA | inactive
EASNCFAIRHFENKFAVETLICHRLWTGKTSCLL | inactive
EASNCFAIRHFENKFAVETLICLFFRRLRVLWPR | inactive
EASNCFAIRHFENKFAVETLICWFCPKTPCVQDV | 4.92

Same assay, conditions: random library (experiment): 2

Sequence | amyloid nucleation score
EASNCFAIRHFENKFAVETLICFTSDSRCLKDWR | 4.79
EASNCFAIRHFENKFAVETLICYCAECRVFKCRY | inactive
EASNCFAIRHFENKFAVETLICNWAFIMWYHWEL | inactive
EASNCFAIRHFENKFAVETLICTLCHMGPTGCGR | 9.1
EASNCFAIRHFENKFAVETLICASGIWPFIVRQW | inactive
EASNCFAIRHFENKFAVETLICFPQGLKRCSYIF | inactive
EASNCFAIRHFENKFAVETLICVGYFLIFPGDIF | inactive
EASNCFAIRHFENKFAVETLICPMCCILVYVWLA | inactive
EASNCFAIRHFENKFAVETLICITAMYYIGLRAG | inactive
EASNCFAIRHFENKFAVETLICREAMWSALMTRR | inactive
EASNCFAIRHFENKFAVETLICYDSAFLRRTPPT | 4.49
EASNCFAIRHFENKFAVETLICND | 1.27
EASNCFAIRHFENKFAVETLICVDS | -0.135
EASNCFAIRHFENKFAVETLICCHADKDFFARAS | 0.727
EASNCFAIRHFENKFAVETLICPGYRLSDSIKWE | inactive
EASNCFAIRHFENKFAVETLICESPLGLVRWALR | inactive
EASNCFAIRHFENKFAVETLICFSISSSPLWFYF | 6.43
EASNCFAIRHFENKFAVETLICNDLHYGYPLWTE | 7.27

Sequence | amyloid nucleation score
EASNCFAIRHFENKFAVETLICNVPRFKEWRMGG | 2.34
EASNCFAIRHFENKFAVETLICYDVWLKEVSSRQ | 2.22
EASNCFAIRHFENKFAVETLICGQQRLC | inactive
EASNCFAIRHFENKFAVETLICIFYGTALSFFSL | inactive
EASNCFAIRHFENKFAVETLICLNECYNQQSSIS | inactive
EASNCFAIRHFENKFAVETLICVIVCNYQVIPAC | 0.693
EASNCFAIRHFENKFAVETLICFNSGYTRGSQNR | 4.78
EASNCFAIRHFENKFAVETLICAYDRCCLRLSWW | inactive
EASNCFAIRHFENKFAVETLICPNCTQFYLRRAN | inactive
EASNCFAIRHFENKFAVETLICLGFNINLRSSHQ | 9.16
EASNCFAIRHFENKFAVETLICNPIKKFLYLRYW | -0.0198
EASNCFAIRHFENKFAVETLICGDMGSTGINRSF | inactive
EASNCFAIRHFENKFAVETLICCVNSCYFCLNMV | 4.86
EASNCFAIRHFENKFAVETLICRPSSFLSYLGPG | 2.51
EASNCFAIRHFENKFAVETLICVMERNNYIMYVG | 2.55
EASNCFAIRHFENKFAVETLICVVCESRVLNTMW | 4.59
EASNCFAIRHFENKFAVETLICLTSKEYGFGFME | 4.2
EASNCFAIRHFENKFAVETLICGSYTVFLMCTGS | inactive

Same assay, conditions: random library (experiment): 3

Sequence | amyloid nucleation score
EASNCFAIRHFENKFAVETLICELYEFRKYHSPS | inactive
EASNCFAIRHFENKFAVETLICTVRVDGVALRAL | inactive
EASNCFAIRHFENKFAVETLICFRTA | 2.25
EASNCFAIRHFENKFAVETLICGQKGHNLDVWCA | inactive
EASNCFAIRHFENKFAVETLICEGASDEGEAPVC | inactive
EASNCFAIRHFENKFAVETLICTEADRLPGSGSA | inactive
EASNCFAIRHFENKFAVETLICASFEGQNARWGR | 0.0944
EASNCFAIRHFENKFAVETLICGTLYFTMDSE | 8.62
EASNCFAIRHFENKFAVETLICQCRAR | inactive
EASNCFAIRHFENKFAVETLICDIM | 9.02
EASNCFAIRHFENKFAVETLICDTLWRLVGDFTK | 5.9
EASNCFAIRHFENKFAVETLICWGLGVRPLQPDA | inactive
EASNCFAIRHFENKFAVETLICYSCCHYLLVT | inactive
EASNCFAIRHFENKFAVETLICAMTRWGMCLW | 0.607
EASNCFAIRHFENKFAVETLICRAVASWCPWQEV | inactive
EASNCFAIRHFENKFAVETLICGRHIGKCDGNSG | inactive

Sequence | amyloid nucleation score
EASNCFAIRHFENKFAVETLICRRGTASKKKRG | inactive
EASNCFAIRHFENKFAVETLICKGQVTSMWCMGR | 3.14
EASNCFAIRHFENKFAVETLICMGRDVNVYNMQR | 9.71
EASNCFAIRHFENKFAVETLICLPIGLFRYGDAE | 8.33
EASNCFAIRHFENKFAVETLICGMPLTGCAACFW | 3.56
EASNCFAIRHFENKFAVETLICQLVVEVLVDGRV | inactive
EASNCFAIRHFENKFAVETLICCLYRDMYVRNFR | inactive
EASNCFAIRHFENKFAVETLICLSVAITNRSSML | 1.13
EASNCFAIRHFENKFAVETLICITSGTVCGTVFL | 5.54
EASNCFAIRHFENKFAVETLICVSAPI | inactive
EASNCFAIRHFENKFAVETLICPWGRQPARRGVG | 0.749
EASNCFAIRHFENKFAVETLICHMEVRADVRYAA | 0.475
EASNCFAIRHFENKFAVETLICLGNLVDYLSVLL | inactive
EASNCFAIRHFENKFAVETLICYSWGEHTRRL | 4.28
EASNCFAIRHFENKFAVETLICWSMVIISEACPL | inactive
